Structures are written as SMILES. The campaign covered roughly 310,000 compounds. About 2,200 (0.71%) showed an effect of 50% or more. Effects have a minus sign here. Some of the results follow.

For this experiment, the target named is human ether-à-go-go-related gene (hERG) potassium channel (human, UniProt Q12809). As to the kind of experiment: primary screen, population patch clamp on CHO cells stably expressing hERG.
Chain of human ether-à-go-go-related gene (hERG) potassium channel (Q12809 whole entry, looked up): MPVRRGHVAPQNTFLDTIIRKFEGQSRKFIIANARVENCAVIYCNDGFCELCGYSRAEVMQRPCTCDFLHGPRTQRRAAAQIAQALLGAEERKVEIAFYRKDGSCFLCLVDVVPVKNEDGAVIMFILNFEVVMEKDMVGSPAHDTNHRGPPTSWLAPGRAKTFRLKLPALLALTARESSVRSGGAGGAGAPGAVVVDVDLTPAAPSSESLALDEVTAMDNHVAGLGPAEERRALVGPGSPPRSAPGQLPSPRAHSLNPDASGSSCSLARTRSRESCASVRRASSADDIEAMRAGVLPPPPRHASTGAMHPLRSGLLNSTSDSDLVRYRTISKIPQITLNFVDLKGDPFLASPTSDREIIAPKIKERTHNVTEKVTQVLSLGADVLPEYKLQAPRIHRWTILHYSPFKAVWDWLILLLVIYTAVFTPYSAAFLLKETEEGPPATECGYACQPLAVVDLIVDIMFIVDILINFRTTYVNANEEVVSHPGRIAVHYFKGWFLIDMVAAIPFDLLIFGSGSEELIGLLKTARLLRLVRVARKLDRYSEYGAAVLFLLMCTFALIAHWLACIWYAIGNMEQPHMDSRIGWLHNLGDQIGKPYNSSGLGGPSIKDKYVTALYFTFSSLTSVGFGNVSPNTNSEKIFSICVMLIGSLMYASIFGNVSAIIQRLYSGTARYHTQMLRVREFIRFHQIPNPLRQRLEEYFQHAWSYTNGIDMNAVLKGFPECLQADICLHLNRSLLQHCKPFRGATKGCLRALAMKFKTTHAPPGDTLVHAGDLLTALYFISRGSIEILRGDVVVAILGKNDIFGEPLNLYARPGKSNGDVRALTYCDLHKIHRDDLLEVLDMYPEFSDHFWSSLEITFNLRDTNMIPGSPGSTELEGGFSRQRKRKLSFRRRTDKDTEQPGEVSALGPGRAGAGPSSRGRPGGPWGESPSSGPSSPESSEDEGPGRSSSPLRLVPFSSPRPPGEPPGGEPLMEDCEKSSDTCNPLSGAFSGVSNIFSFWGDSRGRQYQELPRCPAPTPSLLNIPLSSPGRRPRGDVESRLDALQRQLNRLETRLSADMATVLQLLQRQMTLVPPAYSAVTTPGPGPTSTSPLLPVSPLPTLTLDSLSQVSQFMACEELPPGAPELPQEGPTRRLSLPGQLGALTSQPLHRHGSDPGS
On to `O=C(Nc1ccc(N2CCN(C(=O)c3ccco3)CC2)cc1)c1cccnc1Cl`, for which the “hERG current change (%, negative = inhibition) at 1uM” value was 5.13%.

Turning to `Cc1cc(F)ccc1S(=O)(=O)N1CCCOC1CNC(=O)C(=O)NC1CC1` (stereo not shown), the “hERG current change (%, negative = inhibition) at 1uM” value is listed as -7.83%. With `Cc1ccc(S(=O)(=O)/N=C2/C=C(Sc3ncn[nH]3)C(=O)c3ccccc32)cc1`, the “hERG current change (%, negative = inhibition) at 1uM” value was 4.41%.

In the case of `Cc1ccc(NC(=O)CN(C)C(=O)CSc2nc(C)cc(C)n2)cc1`, the “hERG current change (%, negative = inhibition) at 1uM” value came to 9.28%.

With `Clc1ccc(C2Nc3cccc4cccc(c34)N2)cc1`, the “hERG current change (%, negative = inhibition) at 1uM” value was found to be 1.35%.

On to `CCN(CC)c1ccc(/C=N/OC(C)C(=O)Nc2ccc(C)cc2)cc1` (stereo not shown), for which the “hERG current change (%, negative = inhibition) at 1uM” value is on record as 2.48%. The value for `O=C1N/C(=C/c2cccn2-c2ccccc2)C(=O)N1Cc1ccc(F)cc1` was 13.5%. For `CCCC(=O)NC(C)c1nc2ccccc2[nH]1` (stereo not shown), the “hERG current change (%, negative = inhibition) at 1uM” value is 10.8%. As for `O=[N+]([O-])c1ccc(OCCOc2ccccc2/C=N/n2cnnc2)cc1`, the figure is 4.9%; as for `CCOC(=O)C(=O)N1CCC(C(=O)OC)CC1`, 17.5%. In the case of `Cc1noc(C)c1C(=O)N1CCOCC1`, the “hERG current change (%, negative = inhibition) at 1uM” value is 17.4%. `CCCS(=O)(=O)c1c(S(=O)(=O)CCC)c2ccc(C(C)=O)cn2c1C(=O)OC`: the “hERG current change (%, negative = inhibition) at 1uM” value stood at 2.09%. The value for `CCOC(=O)C1CCN(C(=O)Cn2cc(C#N)c3ccccc32)CC1` was -0.737%. As for `COc1ccc(CNC(=O)C2CCC(CNS(=O)(=O)c3ccccc3)CC2)cc1` (stereo not shown), the figure is 8.61%.

For the compound `CNC(=O)c1ccsc1NC(=O)C1CCN(S(=O)(=O)c2ccc(Cl)s2)CC1`, the “hERG current change (%, negative = inhibition) at 1uM” value is listed as -7.31%. Take `CCN(CC)c1ccc(C2C3CCCCC3(O)CCN2CC(=O)N2CCCCC2)cc1` (stereo not shown): the “hERG current change (%, negative = inhibition) at 1uM” value is recorded as 10.7%.

In the case of `COc1cc(CC(=O)OCc2cccc([N+](=O)[O-])c2)cc(OC)c1OC`, the “hERG current change (%, negative = inhibition) at 1uM” value was 9.63%. As for `CSc1ccc(CC(=O)N2CCC(n3nccc3NC(=O)C3CC3)CC2)cc1`, the “hERG current change (%, negative = inhibition) at 1uM” value was 10.1%. Take `Cc1ccc2oc(=O)n(CC(=O)c3ccc(F)cc3)c2c1`: the “hERG current change (%, negative = inhibition) at 1uM” value is listed as 9.6%. The value for `N#CCCn1cc(/C=C/C(=O)O)c(-c2ccc(F)cc2)n1` was 4.25%; that for `CCOC(=O)c1c(SC)n(-c2ccccc2)c(=S)n(-c2ccccc2)c1=O` was 13.8%. The value for `CCN(CC(=O)NC(=O)Nc1ccccc1F)Cc1ccccc1` was 13.2%. As for `Cc1ccc(-c2cc(C(=O)NCCN3CCOCC3)c3ccccc3n2)o1`, the “hERG current change (%, negative = inhibition) at 1uM” value is 9.3%. As for `CCc1c(C)sc(NC(=O)c2ccco2)c1C(=O)N1CCCCC1`, the figure is -1.15%; as for `Cc1nn(C(C)(C)C)c(OC(=O)c2cccs2)c1S(=O)(=O)c1ccccc1`, -3.07%. The value for `CC(=O)OC1=C(O)C(=O)c2ccccc2C1=O` was 4.37%.

As for `COc1ccc(CN(CC(=O)NCc2ccc(F)cc2)C(=O)CCC(=O)Nc2ccccn2)cc1`, the “hERG current change (%, negative = inhibition) at 1uM” value was found to be 0.936%. As for `COc1ccc(-c2nnc(SCC#N)o2)cc1`, the figure is 7.8%; as for `O=C(Nc1ccc(-c2nnc3n2CCCCC3)cc1)c1cc2ccccc2o1`, -22.4%. The value for `Cc1ccc(NC(=O)CSCC(=O)N2CCN(Cc3ccc4c(c3)OCO4)CC2)cc1` was 0.61%. The value for `O=C(Nc1ccccc1)Nc1nc(-c2ccc(F)c(F)c2)cs1` was 17.8%; that for `CCCSc1cc(Cl)nc(N)n1` was 5.31%; that for `O=C1[C@H]2[C@@H](c3ccc(F)cc3)N3C(=O)N(c4cccc(Br)c4)C(=O)[C@@]3(Cc3ccccc3)[C@H]2C(=O)N1C1CCCCC1` was 4.11%.

As for `O=C(CCCSc1nc2ccccc2[nH]1)Nc1nnc(C2CC2)s1`, the “hERG current change (%, negative = inhibition) at 1uM” value is 8.8%.

In the case of `C=CCc1cc(Cl)ccc1OCCN(C)C.O=C(O)C(=O)O`, the “hERG current change (%, negative = inhibition) at 1uM” value was -1.86%.

For `O=C1CCCC2=C1C(c1ccccc1)CC(=O)N2c1ccccc1` (stereo not shown), the “hERG current change (%, negative = inhibition) at 1uM” value is 4.51%. As for `CC(C)C[C@H](NC(=O)[C@@H]1Cc2c([nH]c3ccccc23)C2c3ccccc3C(=O)N21)C(=O)NCC1CCCO1` (stereo partly shown), the figure is -1.54%; as for `O=C(CCn1c(=O)oc2ccccc21)NCCC1=CCCCC1`, 13%; as for `CN1CCC(N(C)C(=O)COc2ccc(S(=O)(=O)N3CCOCC3)cc2)CC1`, 0.596%.

With `Cc1ccc(NC(=O)C(SCC(=O)O)c2ccccc2)cc1C` (stereo not shown), the “hERG current change (%, negative = inhibition) at 1uM” value came to 2.37%. The value for `Cl.ClCCNc1nc2ccc(Cl)cc2[nH]1` was 13.3%.

Turning to `COc1ccc(OC)c(NC(=O)CCN2CCN(Cc3ccccc3)CC2)c1.Cl`, the “hERG current change (%, negative = inhibition) at 1uM” value is reported as -2.13%.

As to `Cc1nn(C)cc1/C=C1\SC(=S)NC1=O`, the “hERG current change (%, negative = inhibition) at 1uM” value was found to be 9.1%.

With `CCCCn1c(O)c(C(CC)=NCCN2CCOCC2)c(=O)[nH]c1=O`, the “hERG current change (%, negative = inhibition) at 1uM” value worked out at 2.73%. As for `CC(=O)c1ccc(OCC(O)CN2CC(C)OC(C)C2)cc1.Cl` (stereo not shown), the figure is 6.96%; as for `Cc1c(NC(=S)NC(=O)c2ccc(COc3ccccc3)cc2)cccc1C(=O)O`, 11.1%; as for `COc1cccc(NC(=O)N2CCCc3ccccc32)c1`, 13.9%. The value for `CCCCCc1ccc(-c2cn(CC3CCCCC3)nn2)cc1` was 12.5%; that for `Cc1ccc(NC(=O)Cn2nc(C)c(S(=O)(=O)N(C)C)c2C)cc1C` was 6.76%. For `Cc1oc(-c2cccs2)nc1CN1CCN(C2CCCC2)C(CCO)C1` (stereo not shown), the “hERG current change (%, negative = inhibition) at 1uM” value came out at 6.8%.

In the case of `C[C@@H](CN=[N+]=[N-])CN1CC[C@H](NC(=O)OCc2ccccc2)CCC1=O`, the “hERG current change (%, negative = inhibition) at 1uM” value is reported as -0.382%. The value for `Cc1ccc(C)n1CCN1CCN(S(=O)(=O)c2ccc(F)cc2F)CC1` was 10.8%; that for `CCC(C)(C)C1CCC2(CC1)NC(=O)N(CC(=O)N1CCN(C(=O)c3ccco3)CC1)C2=O` (stereo not shown) was 6.27%.

On to `C=CCn1c(=O)c2ccccc2n2c(SCC(=O)O)nnc12`, for which the “hERG current change (%, negative = inhibition) at 1uM” value is on record as 16.3%. As for `Cc1ccc(N=Nc2c(C)[nH]n(C(N)=S)c2=O)cc1`, the figure is 9.85%; as for `COc1cccc(NC(=O)c2cncs2)c1`, 15.4%. As for `COC(=O)N/N=C\C=C\c1ccc2c(c1)OCO2`, the figure is 5.62%.

With `CCCc1nc2ccccc2c(C(=O)O)c1CC`, the “hERG current change (%, negative = inhibition) at 1uM” value is listed as 3.99%.

The record behind these values is article PMC4336329 (PLoS ONE, 2015).
